# Test results taken from PubChem BioAssay AID761 (NMMLSC, 2007).
# Out of some 190,000 compounds screened, about 400 (0.21%) were called active. Inconclusive results, whose numbers are uncertain, are shown with a selection of clear calls.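 How the source made its calls: active means percent activity GTP binding at least 20 points away from the 100% baseline, either down as inhibitor or up as activator; inconclusive means compound flagged as likely green fluorescent from well-wide comparison; inactive means the rest.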
# Target: Cell division control protein 42 homolog (Homo sapiens) (UniProt P60953)
# Sequence of UniProt P60953 (P60953 whole entry, looked up): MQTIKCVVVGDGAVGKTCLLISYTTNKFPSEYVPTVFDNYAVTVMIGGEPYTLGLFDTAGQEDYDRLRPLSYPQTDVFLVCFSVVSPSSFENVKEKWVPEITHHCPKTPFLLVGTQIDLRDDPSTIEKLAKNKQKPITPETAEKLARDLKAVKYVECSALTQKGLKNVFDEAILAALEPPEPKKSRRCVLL
# Assay: wildtype Cdc42 fluorescent GTP binding changes, either direction – biochemical, multiplex bead flow cytometry, Bodipy-GTP, primary screen (AID 761);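 further: median bead fluorescence of bound Bodipy-FL-GTP at 100 nM; 0% = excess unlabeled GTP control and 100% = no compound control; below 100% means less GTP binding so inhibitor and above means activator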
# Settings: GST-Cdc42 beads, at 10 µM, actives lie on both sides
row,SMILES,percent activity (GTP binding)
1,CC[C@H](C)[C@H](NC(N)=O)C(=O)NCCc1ccc(Cl)cc1,inconclusive: 93%
2,CC(=O)C1C(c2ccccc2)c2c(n[nH]c2C)CC1(C)O (configuration not stated),inconclusive: 105%
3,O=C(c1ccc(C(F)(F)F)cc1)C1CCCN(C(=O)CCN2CCCO2)C1 (configuration not stated),inactive: 99%
4,Oc1ccc(NC(=S)N=Nc2c(O)[nH]c3ccc(Br)cc23)cc1,active: 79%
5,CC1=C(C(=O)Nc2cc(C)ccn2)C(c2ccc(C)cc2)C2=C(CCCC2=O)N1 (configuration not stated),inconclusive: 102%
6,Cc1ccc(C(=O)N/N=C\c2c(C)nn(-c3ccccc3)c2Cl)cn1,inconclusive: 105%
7,CCC1(CC)NC(=O)N(CC(=O)OCC(=O)Nc2sccc2C#N)C1=O,inconclusive: 96%
8,CCCCC(O)CN1CCC(c2ccccc2)CC1 (configuration not stated),inconclusive: 104%
9,COc1cc(/C=N/Nc2nc(Nc3ccccc3)nc(N3CCCCC3)n2)ccc1OCC(=O)O,inconclusive: 87%
10,N#Cc1c(N2CCN(c3ccc(F)cc3)CC2)nc(N)c2c(N)nc3c(c12)CC(=O)N3C1CC1,inconclusive: 86%
11,Cc1csc(NC(=O)c2cc(=O)[nH]c3ccc(S(=O)(=O)N4CCOCC4)cc23)n1,inactive: 80%
12,CN(/N=C/c1cccnc1)C1=NS(=O)(=O)c2ccccc21,active: 78%
13,O=c1ccc2cc(S(=O)(=O)Nc3ccc(F)cc3)ccc2o1,inconclusive: 89%
14,C=CCN1C(=O)/C(=C\c2ccc(Oc3nc(N4CCOCC4)nc(N4CCOCC4)n3)c(OC)c2)SC1=S,inactive: 99%
15,C=CCOc1cccc(/C=N/NC(=O)CN(c2cc(Cl)ccc2OC)S(=O)(=O)c2ccc(C)c([N+](=O)[O-])c2)c1,inconclusive: 139%
16,CC(=O)c1c(C)nc2sc3c(=N)n(N)cnc3c2c1-c1ccc(Cl)cc1,inconclusive: 95%
17,O=C(O)c1ccccc1C(=O)NCc1cccnc1,inactive: 99%
18,COC(=O)c1sc2nc(-c3ccco3)ccc2c1N,inconclusive: 87%
19,Cc1ccc(/C(N)=N/OC(=O)Cc2ccccc2)cc1,inconclusive: 104%
20,CN1CCN(CC(=O)Nc2cc(N(C)C)nc3ccccc23)CC1,inconclusive: 101%
21,COc1cc(/C=N\NC(=O)CNC(=O)C2COc3ccccc3O2)ccc1O (configuration not stated),inconclusive: 198%
22,COc1ccc(C2N(c3ccc(F)cc3)C(=O)C3CCCN32)cc1 (configuration not stated),inconclusive: 110%
23,N#CC(Sc1ccccn1)c1ccc(Cl)cc1Cl (configuration not stated),inconclusive: 95%

row,SMILES,percent activity (GTP binding)
1,NC(=S)NNC(=O)[C@@H]1CCCC[C@@H]1C(=O)O,inactive: 113%
2,CCN(C(=O)c1cn(CC)c(=O)c2cc(OC)c(OC)cc12)c1ccccc1C,inconclusive: 112%
3,Cc1nc2ccc(NC(=O)N(C(C)C)C(C)C)cc2s1,inactive: 104%
4,C=C(C)c1cccc(C(C)(C)NC(=O)Nc2ccc3[nH]c(=O)[nH]c3c2)c1,inconclusive: 106%
5,Nc1nonc1-c1nc2ccccc2n1CC(=O)N/N=C/c1ccc(-c2ccccc2C(=O)O)o1,inactive: 85%
6,NC(=O)COc1ccc(NC(=O)c2ccccc2-c2ccccc2)cc1,inactive: 92%
7,CN(Cc1ccc(-n2cccn2)cc1)Cc1nc(-c2cnccn2)no1,inconclusive: 101%
8,COc1ccc2cc3cc(C(=O)NCc4ccccn4)oc3nc2c1,inconclusive: 94%
9,CN(C)S(=O)(=O)c1ccc(N2CCCC2)c(C(=O)N2CCN(c3ccc([N+](=O)[O-])cc3)CC2)c1,inconclusive: 96%
10,Cc1cc2nc3c(=O)[nH]c(=O)[nH]c3nc2c([N+](=O)[O-])c1N,inconclusive: 68%
11,O=C(CCC(=O)c1ccc(Oc2ccccc2)cc1)Nc1cccc(Cl)c1Cl,inconclusive: 91%
12,CCOC(=O)C1(Cc2ccccc2)CCCN(Cc2ccccn2)C1 (configuration not stated),inconclusive: 94%
13,C#CC1(NC(=O)N(C)C)CCCCC1,inconclusive: 102%
14,COc1cccc(CC2(CO)CCCN(Cc3cn[nH]c3-c3cc(C)ccc3C)C2)c1 (configuration not stated),inactive: 100%
15,C/C=N\NC(=O)COc1cc(C)ccc1C,inactive: 95%
16,COc1cc(NC(=S)NCCc2ccc(S(N)(=O)=O)cc2)c(OC)cc1Cl,inactive: 95%
17,O=C(NCC1CCCO1)C1CC(=O)N(C2CCCCCC2)C1 (configuration not stated),inconclusive: 108%
18,COC(=O)c1ccc2nc(Nc3nc4ccc(F)cc4s3)sc2c1,inconclusive: 88%
19,O=C1OCC2=C1C(c1ccc(F)cc1)CC(=O)N2c1ccccc1 (configuration not stated),inactive: 97%
20,O=C(CNC(=S)N(Cc1ccccc1F)C1CCCCC1)NCC1CCCO1 (configuration not stated),inactive: 97%
21,Cc1ccc(-c2csc(-c3c[nH]c4ccccc34)n2)c(C)c1,inconclusive: 95%
22,O=C(N/N=C/c1ccco1)c1ccc(C(=O)N/N=C/c2ccco2)o1,inactive: 84%
23,COc1cccc(CN2CCNC(=O)C2CC(=O)NCCOc2cccnc2)c1 (configuration not stated),inactive: 90%

row,SMILES,percent activity (GTP binding)
1,O=c1c2ccccc2oc2nc3n(c(=O)c12)CCCS3,inconclusive: 88%
2,COc1ccc(-c2nc(C)ncc2-c2csc(C)n2)c(O)c1,inconclusive: 103%
3,COc1cccc(-n2c([S-])c(C(=O)Nc3ccc(C(F)(F)F)cc3)[n+]3ccccc23)c1,inactive: 93%
4,COc1ccc(N(CC(=O)NCc2ccco2)S(=O)(=O)c2ccccc2)cc1,inconclusive: 94%
5,O=C(OC(C(=O)NCc1cccs1)c1ccccn1)c1cccs1 (configuration not stated),inconclusive: 37%
6,O=C(COc1ccc(Cl)cc1)NCc1nnc(SCC(=O)N2CCCC2)o1,inactive: 99%
7,CCOC(=O)c1c(NC(=O)C(=O)N/N=C/c2ccc(OCC)cc2)sc2c1CCCCC2,inactive: 97%
8,c1csc(-c2nn3cnnc3c3ccccc23)c1,inactive: 90%
9,Cc1cc(C)n(C(=O)CNC(=O)C2COc3ccccc3O2)n1 (configuration not stated),inactive: 102%
10,O=C(O)c1cc(-c2ccc(/C=C3/SC(=S)N(Cc4ccccc4)C3=O)o2)ccc1Cl,active: 76%
11,O=C1CC(/C=C/c2ccco2)=Nc2ccccc2N1,inconclusive: 105%
12,CCOC(=O)c1c(NC(=S)NCC2CCCO2)sc(C)c1C (configuration not stated),inconclusive: 90%
13,COc1ccc(N2CCN(C(C)C(=O)N3CCCC3)CC2)cc1 (configuration not stated),inactive: 94%
14,O/N=C1\CC/C(=N\O)c2nn(-c3ccccc3Cl)nc21,inconclusive: 95%
15,O=C(O)C1Sc2[nH]c(=O)sc2C2c3cc(Cl)ccc3OC(=O)C12 (configuration not stated),inconclusive: 88%
16,CCn1cc([N+](=O)[O-])c(C(=O)Nc2nc3ccc(OC)cc3s2)n1,inactive: 92%
17,COc1ccccc1N=c1oc2c(OC)cccc2cc1C(=O)NCc1ccco1,inconclusive: 89%
18,Cc1ccc(C)c(CSCC(=O)NCc2cccs2)c1,inconclusive: 94%
19,COc1ccc(CC(=O)N2CCOCC2)cc1,inconclusive: 100%
20,COc1ccc(CNc2oc(Cc3cccc4ccccc34)nc2C#N)cc1,inconclusive: 109%
21,O=C(Nc1ccc(N2CCOCC2)c(Cl)c1)c1ncn[nH]1,inconclusive: 127%
22,Cc1ccc(C(=O)/C=C/c2ccc(-c3ccc(C)cc3)o2)cc1,inconclusive: 90%
23,CC(NC(=O)C1C2C=CC(C2)C1C(=O)O)c1ccccc1 (configuration not stated),inconclusive: 106%

row,SMILES,percent activity (GTP binding)
1,COc1ccc(/C=N/NC(=O)c2ccco2)cc1Cn1nc(C)c([N+](=O)[O-])c1C,inactive: 96%
2,COCCCNC(=O)c1ccc2nc3ccccc3c(=O)n2c1,inconclusive: 96%
3,CCN1C(c2ccccc2)=C(c2ccccc2)S/C1=C/C=C1\SC(=S)N(C)C1=O,active: 67%
4,CNC(=O)COC(=O)c1cc2c(C)nn(-c3ccc(F)cc3)c2s1,inactive: 104%
5,Cc1ccc(S(=O)(=O)n2nc(OC(=O)C3CCCCC3)cc2N)cc1,inconclusive: 104%
6,Cc1c(Br)c(C(F)(F)F)nn1CC(=O)N1CCCC1,inconclusive: 90%
7,Cc1ccc(NC(=O)c2ccc3c(c2)C(=O)N(CC2CCCO2)C3=O)cc1C (configuration not stated),inconclusive: 96%
8,O=C(Nc1cccc(Cl)c1)N1CCN(c2ncccn2)CC1,inactive: 114%
9,CC(=O)Nc1nonc1-c1nc2ccccc2n1Cc1nnc(C)o1,inconclusive: 106%
10,CC(=O)c1sc(NC(=O)C(C)C)nc1C,inconclusive: 105%
11,O=C1Nc2ccc(Br)cc2C12NNc1ccccc1O2 (configuration not stated),active: 79%
12,COC(=O)c1ccc(C)c(NC(=O)CCc2ccc(OC)c(OC)c2)c1,inactive: 104%
13,COC(=O)[C@@H](NC(=O)O[C@@H]1C(=O)c2ccc(OC)cc2O[C@H]1c1cccc(C(F)(F)F)c1)C(C)C,inactive: 98%
14,CCS(=O)(=O)N1CCN(c2ccc([N+](=O)[O-])c(NCC3CCCO3)c2)CC1 (configuration not stated),inconclusive: 89%
15,CCOc1c(O)ccc(/C=C2\SC(=S)NC2=O)c1[N+](=O)[O-],inconclusive: 77%
16,O=C1NC(=Nc2ccc(O)cc2)S/C1=C/c1ccco1,inactive: 95%
17,CCOC(=O)c1c(C)[nH]c(C(=O)COC(=O)C(C)N2C(=O)C3CCCCC3C2=O)c1C (configuration not stated),inactive: 92%
18,Cc1ccc(-n2c(SCC(=O)Nc3ccc4c5c(cccc35)CC4)nc(O)c(C)c2=O)cc1,inconclusive: 94%
19,O=C(C1CCCN(Cc2cccc(F)c2)C1)N1CCCCC1 (configuration not stated),inactive: 106%
20,S=C(Nc1ccc(Cl)c(Cl)c1)NC1CCCCC1,inconclusive: 107%
21,COC(=O)c1sccc1NC(=S)N1CCN(c2ccccc2)CC1,inconclusive: 94%
22,C=CCn1c(CNc2ccccc2)nnc1SCC(=O)N/N=C/c1ccc(O)cc1O,inconclusive: 91%
23,Cc1[nH]nc2c1C(c1ccc(Cl)cc1)C(C#N)=C(N)O2 (configuration not stated),inconclusive: 94%
